According to the supplement of paper PMC10126150:
Sequences with one replicate were seen in a single cluster, so their values are uncertain.

System: ATP
Assay: switch fluorescence ratio, 500 uM ATP over buffer (Cy3 cluster intensity, sum of 5 cycles each) (fold (ratio)); higher = stronger signal-on switching upon ATP binding; sequences stand for … in TCGTCGGCAGCGTCAGATGTGTATAAGAGACAGTTTTTTTTTTTTTTTTTTTTTTTTT…TC
Conditions: aptamer strand: ATP DNA aptamer (quencher-CACCTGGGGGAGTATTGCGGAGGAAGG + anchor), 100 nM annealed; ATP concentration: 500 uM; one replicate
In short: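 Clusters with intensities outside 100-1000 RFU were excluded. The remaining Cy3-labelled switching-strand clusters on a modified Illumina MiSeq flow-cell had been annealed to 100 nM quencher-labelled ATP aptamer and imaged in selection buffer, then after 15 min with 500 uM ATP at 22 °C, for five cycles separated by NaOH stripping and re-annealing. The fluorescence ratio, averaged per switch-domain sequence, is each cluster's summed target-cycle Cy3 intensity over its summed buffer-cycle Cy3 intensity.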
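Also: ATP exposure 15 min at 22 °C before imaging.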

| Sequence | switch fluorescence ratio |
| --- | --- |
| CTCGTATCTG | 1.05 |
| CTCGTCATCA | 1.05 |
| CTCGTCTACA | 0.965 |
| CTCGTGAGAG | 0.97 |
| CTCGTGCGCC | 1.06 |
| CTCGTGGGGG | 0.976 |
| CTCGTTAAAC | 1.19 |
| CTCGTTCCAA | 1.05 |
| CTCTAAAAGG | 1.04 |
| CTCTAAGCAG | 1.2 |
| CTCTAAGTTA | 0.98 |
| CTCTAGCGGA | 1.11 |
| CTCTATGTGT | 0.966 |
| CTCTCACAAT | 2.37 |
| CTCTCAGCCG | 0.972 |
| CTCTCAGTA | 0.973 |
| CTCTCGAGAG | 0.963 |
| CTCTCGGGAC | 1.8 |
| CTCTCTAGGA | 1.02 |
| CTCTGCGAAT | 4.21 |
| CTCTGCGTCT | 1.08 |
| CTCTGCTGGG | 1.49 |
| CTCTGGATAT | 1.36 |
| CTCTGGCGTA | 1.01 |
| CTCTGGCTAG | 1.08 |

| Sequence | switch fluorescence ratio |
| --- | --- |
| CTCTGGGCAC | 1.33 |
| CTCTGGGCGA | 1.1 |
| CTCTGGGTAT | 1.06 |
| CTCTGTAGAG | 1.03 |
| CTCTGTCGAC | 1.19 |
| CTCTGTGGTA | 1.05 |
| CTCTTCCTAG | 1.13 |
| CTCTTGCTGC | 1.32 |
| CTCTTGGATT | 0.99 |
| CTCTTGGTTA | 1.02 |
| CTCTTGTATA | 1.04 |
| CTCTTTCCCC | 1.03 |
| CTCTTTGCCG | 0.94 |
| CTGAAAACA | 0.946 |
| CTGAAACATT | 1.05 |
| CTGAAATCTA | 1.02 |
| CTGAACTGCA | 1.28 |
| CTGAATCCCG | 1 |
| CTGAATGAG | 0.955 |
| CTGACAATCG | 1.02 |
| CTGACACGCG | 0.995 |
| CTGACACTAT | 1.21 |
| CTGACATGTA | 0.995 |
| CTGACATTGG | 0.985 |
| CTGACCCTCG | 1.03 |

| Sequence | switch fluorescence ratio |
| --- | --- |
| CTGACCGGGC | 1 |
| CTGACGAGTG | 1.05 |
| CTGACGATTA | 1.43 |
| CTGACGCGTA | 1.37 |
| CTGACTACGA | 1.24 |
| CTGACTTGTT | 0.973 |
| CTGAGACTGC | 1.08 |
| CTGAGCAGTT | 1.14 |
| CTGAGCATGA | 1.04 |
| CTGAGGATAC | 2.52 |
| CTGAGGGTTC | 0.985 |
| CTGAGTATCT | 0.978 |
| CTGAGTCCTG | 1.07 |
| CTGAGTGATT | 1.05 |
| CTGATACACT | 1.03 |
| CTGATAGCCT | 1.11 |
| CTGATAGGGG | 0.988 |
| CTGATCGGAC | 1.15 |
| CTGATCTTGA | 0.945 |
| CTGATTCACT | 0.972 |
| CTGATTGGAA | 0.991 |
| CTGATTTGAT | 0.962 |
| CTGCAATAAA | 3.61 |
| CTGCAGTGTC | 1.68 |
| CTGCATTCTT | 1.09 |

| Sequence | switch fluorescence ratio |
| --- | --- |
| CTGCCACTAT | 1.22 |
| CTGCCGCCTG | 1.07 |
| CTGCCTGGGG | 0.967 |
| CTGCGAGCGG | 1.04 |
| CTGCGCATGT | 1.87 |
| CTGCGGTGTA | 0.97 |
| CTGCGTATGA | 1.08 |
| CTGCGTATTC | 1.41 |
| CTGCTAGGAA | 1.05 |
| CTGCTGGCAG | 0.998 |
| CTGCTTCGTC | 1 |
| CTGGACGAGA | 0.969 |
| CTGGACGTCG | 0.956 |
| CTGGAGCGGA | 1.13 |
| CTGGAGGATT | 1.04 |
| CTGGAGGGTA | 0.999 |
| CTGGATTACT | 1.15 |
| CTGGCATGAA | 1 |
| CTGGCATGCT | 0.988 |
| CTGGCCAAAA | 1.03 |
| CTGGCCAAAT | 0.99 |
| CTGGCGAAAC | 1.68 |
| CTGGCGTGAT | 1.06 |
| CTGGCTAACC | 0.992 |
| CTGGGAAGGT | 1.03 |

| Sequence | switch fluorescence ratio |
| --- | --- |
| CTGGGACCCA | 1.01 |
| CTGGGAGAGG | 0.973 |
| CTGGGCAGAT | 0.972 |
| CTGGGCTAAG | 1.01 |
| CTGGGCTGG | 1.03 |
| CTGGGCTTGA | 0.943 |
| CTGGGGAGAA | 0.996 |
| CTGGGGCATG | 1 |
| CTGGGGTCCT | 0.977 |
| CTGGGGTCGC | 1.58 |
| CTGGGGTGCC | 1.03 |
| CTGGGGTTGA | 1 |
| CTGGGTATAC | 1.32 |
| CTGGGTCCGA | 1.03 |
| CTGGGTGACC | 1 |
| CTGGTAAAAA | 1.05 |
| CTGGTAATCG | 0.996 |
| CTGGTAGGTG | 1.08 |
| CTGGTATGCT | 0.976 |
| CTGGTGCGGC | 0.988 |
| CTGGTGTAGA | 1.01 |
| CTGGTTATGG | 0.98 |
| CTGGTTCAGT | 1.01 |
| CTGGTTCCCC | 1.01 |
| CTGGTTGAGC | 0.994 |

| Sequence | switch fluorescence ratio |
| --- | --- |
| CTGTAATTGC | 1.52 |
| CTGTACCGGG | 1 |
| CTGTAGAGTC | 1.04 |
| CTGTAGTGAT | 1 |
| CTGTAGTTAG | 1.08 |
| CTGTATCACT | 1.01 |
| CTGTATTTGC | 0.988 |
| CTGTCCATAG | 1.05 |
| CTGTCCGGAA | 2.02 |
| CTGTCGAAAC | 1.07 |
| CTGTCTGAGG | 1.04 |
| CTGTGATCCT | 1.06 |
| CTGTGCAGCA | 1.06 |
| CTGTGCCGTC | 1.11 |
| CTGTGCGCAG | 1.14 |
| CTGTGGAGTG | 0.999 |
| CTGTGTGGAA | 0.999 |
| CTGTTAACCT | 1.77 |
| CTGTTAATCG | 0.948 |
| CTGTTATAAC | 1.01 |
| CTGTTGCGCC | 1.03 |
| CTGTTTGGAG | 0.995 |
| CTTAAAAGCT | 1.15 |
| CTTAAAAGG | 1 |
| CTTAAACTA | 0.973 |

| Sequence | switch fluorescence ratio |
| --- | --- |
| CTTAAGATAT | 1.02 |
| CTTAAGTCTA | 0.988 |
| CTTAATACGC | 1.34 |
| CTTAATATTT | 1.03 |
| CTTAATGGCG | 0.989 |
| CTTAATTGGG | 0.925 |
| CTTAATTGGT | 1.06 |
| CTTAATTTAC | 1.05 |
| CTTACAGGGA | 0.972 |
| CTTACCATA | 1.1 |
| CTTACCTTGT | 0.969 |
| CTTACGACTA | 1.16 |
| CTTACGTGAC | 1.09 |
| CTTACGTTGG | 1 |
| CTTACTGATC | 1.06 |
| CTTACTTAGC | 1.16 |
| CTTACTTGAT | 1.03 |
| CTTAGAATAA | 0.995 |
| CTTAGAGCCC | 0.998 |
| CTTAGATAGC | 0.991 |
| CTTAGCACGG | 1.02 |
| CTTAGCGGGT | 1.02 |
| CTTAGCTCGA | 1.05 |
| CTTAGGTAGG | 0.978 |
| CTTAGGTCAT | 0.996 |

| Sequence | switch fluorescence ratio |
| --- | --- |
| CTTAGGTTCT | 0.986 |
| CTTAGTATGA | 1.01 |
| CTTAGTGCTA | 1.03 |
| CTTAGTGTAC | 1.07 |
| CTTATCACAT | 1 |
| CTTATCGTCC | 1.01 |
| CTTATGAAAG | 0.989 |
| CTTATGATT | 1.03 |
| CTTATGGCAT | 1.01 |
| CTTATGGTTA | 0.973 |
| CTTCACAGAA | 0.993 |
| CTTCACCAC | 1.04 |
| CTTCACGTGG | 1.03 |
| CTTCAGAGAA | 0.955 |
| CTTCAGCTTG | 0.985 |
| CTTCATTAGT | 0.984 |
| CTTCATTTT | 1.29 |
| CTTCCACAGA | 1.24 |
| CTTCCAGGGG | 3.61 |
| CTTCCATTTA | 0.994 |
| CTTCGCGACG | 1.24 |
| CTTCGCTGGA | 1.09 |
| CTTCGCTTA | 2.29 |
| CTTCGGGGCC | 1.86 |
| CTTCGGGGGC | 1.04 |
